From patent US20070092504A1 (Pfizer, published 2007) come the findings set out here.

To fix the notation:
B1: murine PD-L1 expressed on transfected cells (ligand)
chain: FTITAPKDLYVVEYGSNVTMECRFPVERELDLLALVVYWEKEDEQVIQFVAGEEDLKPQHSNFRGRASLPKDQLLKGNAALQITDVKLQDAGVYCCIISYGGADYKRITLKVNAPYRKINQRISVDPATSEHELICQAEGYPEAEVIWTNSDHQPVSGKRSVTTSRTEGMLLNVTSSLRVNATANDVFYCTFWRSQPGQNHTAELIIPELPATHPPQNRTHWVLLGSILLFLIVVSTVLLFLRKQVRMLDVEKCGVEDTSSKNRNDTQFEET
notes: also called mouse PD-L1; mPD-L1
B2: human CTLA4-Fc (human Ig gamma 1) (Fc fusion)
chain: not shown
notes: also called CTLA4-Ig; hCTLA4

For test [1], the target named is B2. Briefly: flow cytometry on CHO-mB7-4 cells. In general terms: A flow cytometer gives signals particle by particle.
In test [2] the target is T1, human PD-L1.Ig (extracellular region of human PD-L1 fused to hinge-CH2-CH3 of murine Ig gamma 2a) (human; murine, UniProt P01863 98-330 = IgG part, limits assumed).
T1 construct: domain: hinge-CH2-CH3; also called PD-L1-Fc; hPD-L1.Fc
Briefly: BIACORE, hCTLA-4.Ig immobilised, soluble human PD-L1.Ig injected. (SPR reads the build-up and loss of mass on a sensor chip optically.)

Take B1: in test [1], the binding result is given as “no binding”.
Take B2: the binding result in test [2] is reported as “no binding”.
